In the supplement of paper PMC7125110:
± gives the standard error. Variants at the background level are over-represented here.

B1: glmS ribozyme (parent)
chain: AUAAAAGCGCCAGAACUACAGAAAUGUAGUUGACGAGGAGGAGGUUUAUCGAAUUUUCGGCGGAUGCCUCCAAA

Key:
Details in all cases: with glucosamine-6-phosphate
glucosamine-6-phosphate [1] = variants of: B1; assay: kcat; higher = faster cleavage; RNA array
Method in brief: (§1)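 Using a hybridised Cy3 probe at 37 °C, barcoded ribozyme variants transcribed in situ by E. coli RNA polymerase on sequenced MiSeq chips were monitored across tiles imaged over ~14 h. The flow contained glucosamine-6-phosphate from 40 μM to 10 mM in HEPES/KCl/Mg(OAc)2 buffer. Signals were normalised to baseline and to non-cleaving reference variants before per-tile medians were fit to one- or two-exponential decays to yield kobs. Weighted Michaelis–Menten fits across concentrations gave kcat and KM.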

glucosamine-6-phosphate [2] = variants of: B1; assay: self-cleavage kobs at 10000 uM GlcN6P; higher = faster cleavage; RNA array
Method in brief: as §1

glucosamine-6-phosphate [3] = variants of: B1; assay: self-cleavage kobs at 40 uM GlcN6P; higher = faster cleavage; RNA array
Method in brief: as §1

glucosamine-6-phosphate [4] = variants of: B1; assay: self-cleavage kobs at 640 uM GlcN6P; higher = faster cleavage; RNA array
Method in brief: as §1

glucosamine-6-phosphate [5] = variants of: B1; assay: self-cleavage kobs at 160 uM GlcN6P; higher = faster cleavage; RNA array
Method in brief: as §1

glucosamine-6-phosphate [6] = variants of: B1; assay: self-cleavage kobs at 2500 uM GlcN6P; higher = faster cleavage; RNA array
Method in brief: as §1

Variant | kcat (glucosamine-6-phosphate [1]) [s⁻¹] | self-cleavage kobs at 10000 uM GlcN6P (glucosamine-6-phosphate [2]) [s⁻¹] | self-cleavage kobs at 40 uM GlcN6P (glucosamine-6-phosphate [3]) [s⁻¹] | self-cleavage kobs at 640 uM GlcN6P (glucosamine-6-phosphate [4]) [s⁻¹] | self-cleavage kobs at 160 uM GlcN6P (glucosamine-6-phosphate [5]) [s⁻¹] | self-cleavage kobs at 2500 uM GlcN6P (glucosamine-6-phosphate [6]) [s⁻¹]
A33G G60U | < 1e-05 | < 1e-05 |  |  |  | 
A6U A64C |  | < 1e-05 | < 1e-05 | < 1e-05 |  | 
U56C G62A | < 1e-05 | < 1e-05 | < 1e-05 |  | < 1e-05 | 
A6C U55C C70U |  |  | < 1e-05 |  |  | 
A6G G38U G59U |  |  | < 1e-05 |  |  | 
A6C U49G C67U |  |  | < 1e-05 |  |  | 
A36C C61U | < 1e-05 | < 1e-05 |  |  |  | < 1e-05
C11G C50A | < 1e-05 | < 1e-05 | < 1e-05 |  |  | 
G44U C71A | < 1e-05 |  | < 1e-05 | < 1e-05 | < 1e-05 | 
A6G C16G C67A |  |  | < 1e-05 |  |  | 
A33C U57C | < 1e-05 |  | < 1e-05 |  |  | 
A6G A14G G32C G44A A53C U65G C68U |  |  | < 1e-05 |  |  | < 1e-05
A12U G13C A14U | < 1e-05 | < 1e-05 | < 1e-05 | < 1e-05 |  | 
A6U C61A | < 1e-05 |  |  |  |  | 
A6C A36C G44U C50G U55G |  |  | < 1e-05 |  |  | 
A6U A36G A64U |  | < 1e-05 | < 1e-05 | < 1e-05 | < 1e-05 | < 1e-05
C16A C61A | < 1e-05 |  | < 1e-05 |  |  | 
A36U A48C | < 1e-05 |  |  | < 1e-05 |  | 
G38U U56G C71G | < 1e-05 |  |  | < 1e-05 |  | 
U30C U65C | < 1e-05 |  | < 1e-05 | < 1e-05 |  | 
C10U U30A | < 1e-05 |  |  |  |  | 
G9A A12G | < 1e-05 |  | < 1e-05 | < 1e-05 |  | 
C8A U69C | < 1e-05 |  |  | < 1e-05 |  | < 1e-05
C58A G59U | < 1e-05 |  |  |  | < 1e-05 | 
A6G A14C A48U C50U U55G C68A |  | < 1e-05 | < 1e-05 | < 1e-05 | < 1e-05 | < 1e-05

Variant | kcat (glucosamine-6-phosphate [1]) [s⁻¹] | self-cleavage kobs at 10000 uM GlcN6P (glucosamine-6-phosphate [2]) [s⁻¹] | self-cleavage kobs at 40 uM GlcN6P (glucosamine-6-phosphate [3]) [s⁻¹] | self-cleavage kobs at 640 uM GlcN6P (glucosamine-6-phosphate [4]) [s⁻¹] | self-cleavage kobs at 160 uM GlcN6P (glucosamine-6-phosphate [5]) [s⁻¹] | self-cleavage kobs at 2500 uM GlcN6P (glucosamine-6-phosphate [6]) [s⁻¹]
A6G G32A G35U |  | < 1e-05 | < 1e-05 |  |  | 
A6G A15C |  |  | < 1e-05 |  |  | 
A33C C34U | < 1e-05 | < 1e-05 |  |  |  | 
A33G G63U | < 1e-05 |  |  |  | < 1e-05 | < 1e-05
C68U C70A | < 1e-05 | < 1e-05 | < 1e-05 | < 1e-05 |  | 
C68U C70G | < 1e-05 | < 1e-05 | < 1e-05 |  | < 1e-05 | 
A6G G32C U47A A53G |  | < 1e-05 | < 1e-05 |  |  | 
U57G U65C | < 1e-05 | < 1e-05 |  | < 1e-05 |  | 
G38U U65G | < 1e-05 |  | < 1e-05 | < 1e-05 |  | 
A36G G37A | < 1e-05 |  | < 1e-05 |  | < 1e-05 | 
A6G A33U U46A |  |  | < 1e-05 |  |  | 
A6C A33C |  | < 1e-05 | < 1e-05 | < 1e-05 | < 1e-05 | < 1e-05
G63C C68A | < 1e-05 |  |  |  | < 1e-05 | 
A42G G51U | < 1e-05 | < 1e-05 |  | < 1e-05 | < 1e-05 | 
U57G C61A | < 1e-05 |  | < 1e-05 |  |  | 
C58U G63C | < 1e-05 | < 1e-05 |  |  | < 1e-05 | 
A6G G13A C16U U47A |  | < 1e-05 | < 1e-05 |  |  | 
A6U A15C A48U U69G |  |  | < 1e-05 |  |  | 
G41C C67A | < 1e-05 |  |  |  |  | 
G51A A53U | < 1e-05 | < 1e-05 | < 1e-05 | < 1e-05 | < 1e-05 | 
G59U A64C | < 1e-05 | < 1e-05 | < 1e-05 |  |  | < 1e-05
G9C G63U | < 1e-05 |  | < 1e-05 |  |  | 
A6G G32C A33C G41U G43C |  | < 1e-05 | < 1e-05 |  |  | 
U49G C58U | < 1e-05 |  |  |  |  | 
A6C G35A U56A |  |  | < 1e-05 |  |  | 

Variant | kcat (glucosamine-6-phosphate [1]) [s⁻¹] | self-cleavage kobs at 10000 uM GlcN6P (glucosamine-6-phosphate [2]) [s⁻¹] | self-cleavage kobs at 40 uM GlcN6P (glucosamine-6-phosphate [3]) [s⁻¹] | self-cleavage kobs at 640 uM GlcN6P (glucosamine-6-phosphate [4]) [s⁻¹] | self-cleavage kobs at 160 uM GlcN6P (glucosamine-6-phosphate [5]) [s⁻¹] | self-cleavage kobs at 2500 uM GlcN6P (glucosamine-6-phosphate [6]) [s⁻¹]
A6C C58U |  | < 1e-05 | < 1e-05 |  | < 1e-05 | 
A6G G43U U54G C70U |  |  | < 1e-05 |  |  | 
A39C G59U | < 1e-05 |  | < 1e-05 |  |  | 
A6G G43U |  | < 1e-05 | < 1e-05 | < 1e-05 | < 1e-05 | < 1e-05
G35C G37C | < 1e-05 |  | < 1e-05 | < 1e-05 | < 1e-05 | < 1e-05
A36C G63C | < 1e-05 |  |  | < 1e-05 |  | 
A6C A42U |  | < 1e-05 | < 1e-05 | < 1e-05 | < 1e-05 | 
U30C A42U | < 1e-05 | < 1e-05 |  |  |  | 
A6G A12U A36G U54A |  |  | < 1e-05 |  |  | 
G38A G66A | < 1e-05 | < 1e-05 | < 1e-05 |  |  | 
C10A C67U | < 1e-05 |  |  |  |  | 
A6G G63U |  | < 1e-05 | < 1e-05 | < 1e-05 | < 1e-05 | 
G35C U56A G59A | < 1e-05 |  |  |  |  | 
G41C G51C | < 1e-05 | < 1e-05 | < 1e-05 |  |  | 
G51A G66U | < 1e-05 |  |  | < 1e-05 |  | 
G32A G63A | < 1e-05 |  |  | < 1e-05 |  | 
C58U G60C | < 1e-05 | < 1e-05 | < 1e-05 |  |  | 
G29U G38C | < 1e-05 |  |  | < 1e-05 |  | 
U2A A3U G9U A14U A52G U57C |  | < 1e-05 | < 1e-05 |  |  | 
A6G C34A |  | < 1e-05 | < 1e-05 | < 1e-05 | < 1e-05 | < 1e-05
G51U G60A | < 1e-05 | < 1e-05 |  |  | < 1e-05 | 
A14U G35A | < 1e-05 |  |  |  | < 1e-05 | 
A36U A42G | < 1e-05 |  | < 1e-05 | < 1e-05 |  | 
A33G | < 1e-05 | < 1e-05 | < 1e-05 |  |  | 
A6C G51A U55G |  |  | < 1e-05 |  |  | 

Variant | kcat (glucosamine-6-phosphate [1]) [s⁻¹] | self-cleavage kobs at 10000 uM GlcN6P (glucosamine-6-phosphate [2]) [s⁻¹] | self-cleavage kobs at 40 uM GlcN6P (glucosamine-6-phosphate [3]) [s⁻¹] | self-cleavage kobs at 640 uM GlcN6P (glucosamine-6-phosphate [4]) [s⁻¹] | self-cleavage kobs at 160 uM GlcN6P (glucosamine-6-phosphate [5]) [s⁻¹] | self-cleavage kobs at 2500 uM GlcN6P (glucosamine-6-phosphate [6]) [s⁻¹]
A6G A33U C58G C67U C71A |  |  | 5.47e-05 ± 2.5e-05 | 0.000593 ± 0.00019 | 9.68e-05 ± 2.9e-05 | 0.000109 ± 4.9e-05
A6G U31A |  |  | < 1e-05 |  |  | 
G59A G66U | < 1e-05 |  |  |  |  | 
U31C G38A | < 1e-05 |  |  | < 1e-05 |  | < 1e-05
A33C G62A | < 1e-05 | < 1e-05 | < 1e-05 |  |  | < 1e-05
G38A C50A | < 1e-05 |  |  |  |  | 
A15G G51U C70U | < 1e-05 |  |  |  |  | 
A6G G13C U56G |  | < 1e-05 | < 1e-05 |  |  | 
A6G A42U |  | < 1e-05 | < 1e-05 | < 1e-05 | < 1e-05 | 
C10G A15U | < 1e-05 |  | < 1e-05 | < 1e-05 | < 1e-05 | 
G29C U55A C61U | < 1e-05 |  |  | < 1e-05 |  | 
A6C C11U A14C G37U A39U A53G U65C |  |  | < 1e-05 |  |  | 
A6G G29U C70A |  | < 1e-05 | < 1e-05 |  |  | 
A6G A14C A15U U45G A52U |  | < 1e-05 | < 1e-05 |  |  | 
A6G G35U A52C C70G |  |  | < 1e-05 |  |  | 
A6U C11G | < 1e-05 |  |  |  |  | < 1e-05
A6C C10U U31C U55G |  | < 1e-05 | < 1e-05 |  |  | 
A6G U47G |  |  | < 1e-05 |  |  | 
A6G A52C |  | < 1e-05 | < 1e-05 | < 1e-05 |  | < 1e-05
C11G A52G | < 1e-05 | < 1e-05 | < 1e-05 |  |  | 
A39C G43U | < 1e-05 |  | < 1e-05 | < 1e-05 | < 1e-05 | 
G32A G59U C71A | < 1e-05 |  | < 1e-05 |  |  | 
A6U A14G G62C |  | < 1e-05 | < 1e-05 | < 1e-05 | < 1e-05 | < 1e-05
G62C G63C | < 1e-05 | < 1e-05 |  |  | < 1e-05 | 
